Drawing on PubChem BioAssay AID1346428 (National Center for Advancing Translational Sciences (NCATS), 2018), this text covers activation for 84 compounds.

The whole screen tested about 48,000 compounds, of which about 1,200 (2.5%) were called active. Inconclusive results (about 2%) are left out.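 How the source made its calls: active means activation of at least 60% and not above a set upper limit (about 1 call in 100 departs from these limits); inconclusive means activation of 40% to 60%, or above that upper limit; inactive means activation under 40%.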 This is one part of the list.

Chain of UniProt O75388 (O75388 whole entry, looked up): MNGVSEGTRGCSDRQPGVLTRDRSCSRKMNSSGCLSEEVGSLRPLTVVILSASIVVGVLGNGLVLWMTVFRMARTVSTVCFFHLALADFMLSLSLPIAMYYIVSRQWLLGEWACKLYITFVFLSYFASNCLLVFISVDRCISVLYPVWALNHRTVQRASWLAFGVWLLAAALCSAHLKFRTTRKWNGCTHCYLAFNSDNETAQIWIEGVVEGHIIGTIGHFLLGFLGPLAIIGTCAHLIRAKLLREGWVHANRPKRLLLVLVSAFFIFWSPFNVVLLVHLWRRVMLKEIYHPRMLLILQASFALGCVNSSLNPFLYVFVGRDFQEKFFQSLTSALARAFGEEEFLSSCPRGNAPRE

The assay deals with Probable G-protein coupled receptor 32 (Homo sapiens) (UniProt O75388). Kind of assay: qHTS for Agonists of Human Resolvin D1 Receptor DRV1. Further: 0% is about no effect. As to conditions: CHO-K1 GPR32 beta-arrestin PathHunter luminescence, 90 min; at 76.9 µM; active compounds read high; zero percent set by DMSO-only wells. Put shortly:
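Beta-arrestin recruitment read-out: luminescence from complemented beta-Gal in CHO-K1 GPR32 PathHunter cells, measured 1 h after detection reagent at ambient temperature following 90 min compound exposure at 37 °C; DMSO served as basal (EC0) control.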
For orientation: In qHTS, concentration-response curves come from the screen itself.
For the compound `Cn1c(=O)c2nc(SCC(=O)Nc3ccc(OC(F)(F)F)cc3)n(C)c2n(C)c1=O`, the activation is inactive: 0.38%.

With `COc1ccc(CC(=O)Nc2c(C(=O)N3CCN(c4ccccc4)CC3)oc3ccccc23)cc1OC`, the activation is inactive: -13.8%.

In the case of `NC(=O)CC[C@H](N)C(=O)O`, the activation was inactive: 4.96%.

Regarding `CCOC(=O)c1c(C)[nH]c(C)c1S(=O)(=O)N(C)CC(=O)Nc1ccc(OC)cc1`, the activation was inactive: -2.99%.

`Cc1cccc(Cn2cc(S(=O)(=O)c3cccc(Cl)c3)c(=O)c3cc(F)c(N4CCOCC4)cc32)c1`: the activation was inactive: -20.6%.

With `O=C1c2ccccc2C(=O)C1c1ccc(Br)cc1`, the activation was inactive: 21.2%.

`O=C1OCC2=C1C(c1cccc(Cl)c1)CC(=O)N2c1ccc(C(F)(F)F)cc1` (centres undefined): the activation is inactive: 8.76%.

As to `CCOc1ccccc1NC(=O)C1CCN(S(=O)(=O)c2c(C)noc2/C=C/c2ccco2)CC1`, the activation was inactive: -24.7%.

`COc1cc(C(CC(=O)Nc2ccc(C)c(F)c2)N2Cc3ccccc3C2=O)cc(OC)c1OC` (centres undefined): the activation was inactive: -5.99%.

With `COc1ccc(-c2nc(CNC(=O)NC3CCCCC3)c(C)o2)cc1`, the activation was inactive: 10.3%.

For `CCN(CC)c1ncnc2c1cnn2-c1cc(Cl)ccc1C`, the activation is active: 71.6%.

For `O=C(CCn1c(=O)c2ccccc2n(CC(=O)Nc2cccc(F)c2)c1=O)NCCc1ccccc1`, the activation is inactive: 26.6%.

Turning to `COc1ccc(OC)c(CNC(=O)c2ccc(N3Cc4ccccc4Oc4ncccc43)s2)c1`, the activation is inactive: -18%.

For `COc1cc(NC(=O)Cn2nc(C(F)(F)F)c3c2CCC3)cc(OC)c1OC`, the activation is inactive: 37.7%.

`CC1CCCN(CCCNC(=O)c2cc(Sc3ccc(F)cc3)nc3ccccc23)C1` (centres undefined): the activation is inactive: -21.9%.

With `Cc1noc(-c2ccc(-c3noc(-c4ccc(F)cc4)n3)cc2)n1`, the activation is inactive: -2.28%.

As for `Cc1ccc(NC(=O)Cn2nc(-c3ccccc3)nc(Cc3ccc(Cl)cc3)c2=O)cc1`, the activation was inactive: -12.9%.

On to `COc1cc(C2Nc3ccccc3-c3cc(C)nn32)ccc1O` (centres undefined), for which the activation is inactive: -19.9%.

`CCOC(=O)c1cccc(NC(=O)CCSCCc2ccccn2)c1`: the activation is inactive: -6.74%.

As for `COc1cccc(CNC(=O)c2cc3c(-c4ccccc4F)nn(C)c3s2)c1`, the activation is inactive: 8.96%.

For the compound `O=C(CCCn1c2ccccc2c(=O)c2ccccc21)Nc1cccc(Cl)c1`, the activation is inactive: 16.4%.

As for `O=S(=O)(c1ccc(Br)s1)N1CCN(c2cccc(C(F)(F)F)c2)CC1`, the activation was inactive: -28.4%.

`O=C(NCCc1ccc(Cl)cc1)c1c2c(nc3ccccc13)C(=O)N(C1CCCCC1)C2`: the activation is inactive: -5.91%.

On to `Cc1csc2nc(COC(=O)c3ccccc3NC(=O)c3cccc(Br)c3)cc(=O)n12`, for which the activation was inactive: 8.92%.

Turning to `COCCn1c(SCC(=O)Nc2cc(Cl)ccc2OC)nc2c([nH]c3ccccc32)c1=O`, the activation was inactive: -5.47%.

For the compound `Cc1ccc(N2CCN(C(=O)c3nn(C)c4c3CS(=O)(=O)c3ccccc3-4)CC2)c(C)c1`, the activation was inactive: -4.95%.

As for `CCc1ccc2nc(N(Cc3cccnc3)C(=O)c3ccc(C#N)cc3)sc2c1`, the activation is inactive: -15.1%.

As for `CCCCC(=O)Nc1ccc2nc(SCC(=O)N3CCc4ccccc43)sc2c1`, the activation was inactive: 13.9%.

Turning to `CC(=O)Nc1ccc(NC(=O)c2oc3c(c2C)-c2nn(Cc4ccccc4Cl)cc2CC3)cc1`, the activation was inactive: -7.22%.

For the compound `O=C(CCn1c(=O)c2sccc2n(Cc2ccccc2F)c1=O)NCc1ccc2c(c1)OCO2`, the activation is inactive: -2.62%.

Turning to `CCOC(=O)c1ccc(NC(=O)Cn2nc3c4ccccc4n(Cc4cccc(F)c4)cc-3c2=O)cc1`, the activation was inactive: -5.57%.

For the compound `CCOC(=O)N1CCc2c(sc3c2c(=O)n(Cc2ccccc2)c(=O)n3CC(=O)Nc2cccc(CC)c2)C1`, the activation was inactive: -5.25%.

Take `CCc1cccc(NC(=O)CCn2c(=O)c3cccn3c3cccnc32)c1`: the activation is inactive: -14.1%.

In the case of `Cc1ccc(Nc2ccc3cc(S(=O)(=O)N4CCC(C)CC4)ccc3n2)c(Cl)c1`, the activation was inactive: -41.4%.

Take `CCOc1ccc(-n2cc(-c3ccccc3)c3c(NCCc4ccccc4)ncnc32)cc1`: the activation was inactive: -30.9%.

For the compound `Cc1cccc(NC(=O)Cn2nc(-c3ccccc3)c3cnc4ccccc4c32)c1`, the activation was inactive: 13.3%.

In the case of `COc1ccc(C(=O)c2c(N)c(-c3nc(-c4ccc5c(c4)OCO5)cs3)c3ccccn23)cc1`, the activation is inactive: -3.8%.

Regarding `O=C(NCCc1ccccc1)c1ccc(CS(=O)Cc2ccc(Cl)cc2)o1` (centres undefined), the activation was inactive: -21.7%.

As for `O=C(CCNS(=O)(=O)c1ccc2c(c1)CCCC(=O)N2)Nc1cccc(Cl)c1`, the activation is inactive: 44.6%.

Regarding `Cc1cc(NC(=O)CCc2nc3cccnc3n2-c2ccccc2)ccc1Br`, the activation was active: 65.8%.

With `COC(=O)Cn1c(C2CC(=O)N(c3c(C)cccc3C)C2)nc2ccccc21` (centres undefined), the activation is inactive: -2.69%.

In the case of `O=S(=O)(c1ccc(C2CCCCC2)cc1)N1CCN(c2ccc(Cl)c(Cl)c2)CC1`, the activation is inactive: -6.64%.

As for `O=C(Nc1ccc(F)cc1F)C1CCN(c2ncccn2)CC1`, the activation is inactive: 14.7%.

Turning to `Cc1ccc(C)c(N2CCN(c3ncnc4c3nc3n4CCCC3)CC2)c1`, the activation is inactive: -3.02%.

Consider `Cc1ccccc1NC(=O)Cn1cc(C(=O)c2ccco2)c2ccccc21`, for which the activation is inactive: -12.5%.

Consider `Cc1ccc(-c2nn3c(-c4ccccc4C)nnc3c3ccccc23)cc1`, for which the activation was inactive: -18%.

With `CCOC(=O)c1cc(-c2ccccc2)n(-c2cccc(C(=O)Nc3cccc(SC)c3)c2)c1C`, the activation was inactive: -21.5%.

Turning to `Cc1cn2c(=O)cc(COC(=O)c3ccc(NC(=O)COc4ccccc4C)cc3)nc2s1`, the activation was inactive: -17.4%.

As for `COc1ccc(CCC(=O)NCCc2csc(-c3ccc(F)cc3)n2)cc1`, the activation is inactive: -6.96%.

Regarding `CCC(=O)Oc1ccc2c(c1)CC[C@@H]1[C@@H]2CC[C@@]2(C)[C@H]1C[C@@H](OC(=O)CC)[C@@H]2OC(=O)CC`, the activation is inactive: -13.5%.

For `COc1ccc(OC)c(NC(=O)CSc2nc(=O)n(CCN(C)C)c3c2CCC3)c1`, the activation is inactive: -7.35%.

As for `CCc1ccccc1NC(=O)N1CCOc2ccccc21`, the activation was inactive: -20.4%.

Take `CCCOc1ccc(C2C(=O)N(C3CCCCCC3)CC(=O)N2Cc2ccccc2OC)cc1OC` (centres undefined): the activation is inactive: -33.2%.

For `O=C(Cn1ncc2c([nH]c3ccccc32)c1=O)NCCCN1CCN(c2ccc(F)cc2)CC1`, the activation is inactive: 7.7%.

In the case of `COc1cc(NC(=O)CC2C(=O)N(c3ccccc3)C(=O)N2Cc2ccc(F)cc2)cc(OC)c1` (centres undefined), the activation was inactive: -25.3%.

For `CCCn1c2ccccc2c2cnn(CC(=O)Nc3cc(C)c(Cl)cc3OC)c(=O)c21`, the activation is inactive: -6.7%.

On to `CCc1ccc(-n2c(=O)c3c4c(sc3n(Cc3ccccc3C#N)c2=O)CCCC4)cc1`, for which the activation was inactive: -11%.

`CC1CCc2c(sc(NC(=O)Cc3ccccc3)c2C(=O)Nc2ccc(Cl)cc2)C1` (centres undefined): the activation was inactive: 0.429%.

`COc1ccc(CNC(=O)CCNS(=O)(=O)c2ccc3c(c2)oc(=O)n3C)cc1`: the activation was inactive: -6.86%.

Take `O=C(O)CC1CCCc2ccccc2C1O` (centres undefined): the activation was inactive: -1.28%.

Take `CCC1CN(C(=O)Nc2ccccc2F)c2cc(C)ccc2O1` (centres undefined): the activation was inactive: -19.2%.

As to `CCOc1ccc(-c2nc(Cn3c(=O)cc(C)c4c(C)nn(-c5ccccc5)c43)c(C)o2)cc1`, the activation was inactive: -0.0055%.

On to `CC1CCN(CC2CCN(C(=O)NCc3ccccc3)CC2)CC1`, for which the activation is inactive: 3.14%.

For the compound `CCCCCCn1nnc2sc(-c3ccccc3)cc2c1=O`, the activation is inactive: 0.65%.

As to `Cc1cc2c(s1)Nc1ccccc1N=C2N1CCN(C)CC1`, the activation was inactive: 5%.

On to `Cc1ccccc1C(=O)Nc1cc(C)c(O)c(-c2nc3ccccc3o2)c1`, for which the activation is inactive: 6.86%.

As for `COc1cc(C)ccc1OCCSc1nc2ccc(NC(=O)c3ccco3)cc2s1`, the activation was inactive: 7.82%.

As for `CCN1c2ccccc2-c2nc(SCC(=O)Nc3cccc(C)c3C)ncc2S1(=O)=O`, the activation is inactive: 21.8%.

With `CCn1cc(C(=O)N(C)Cc2ccccc2)c(=O)c2cc(S(=O)(=O)N3CCc4ccccc4C3)ccc21`, the activation was inactive: -26.1%.

Take `COc1ccc(C2CC(=O)c3cc(-c4nc(-c5cccc([N+](=O)[O-])c5)cs4)c(=O)n(-c4ccccc4)c3C2)cc1` (centres undefined): the activation was inactive: 0.151%.

As for `COc1cccc(C(=O)NCC2OCCc3ccccc32)c1` (centres undefined), the activation is inactive: 14.3%.

`O=C(NCCc1ccccc1)c1ccc2c(c1)N(Cc1ccc(Cl)cc1)C(=O)CS2`: the activation was inactive: 0.0854%.

On to `Cc1nn(C)c(C)c1S(=O)(=O)N(CC(=O)NCCc1ccccc1)c1ccc(C(C)C)cc1`, for which the activation was inactive: -10.3%.

Take `CCc1ccc(NC(=O)CSc2ccnc(=O)[nH]2)cc1`: the activation was inactive: -9%.

Take `Cc1ccc(C(=O)c2cn(Cc3cccc(Cl)c3)c3nc(C)ccc3c2=O)cc1`: the activation is inactive: -9.64%.

For `CCCCNC(=O)c1nn(C)c2c1CSc1ccccc1-2`, the activation is inactive: -15.6%.

Consider `Cc1cccc(N2C(=O)CC(c3ccc(F)cc3)C3=C2COC3=O)c1` (centres undefined), for which the activation was inactive: -16.7%.

Take `O=C(CSCc1ccc(F)cc1)N1CCN(c2ccccc2F)CC1`: the activation is inactive: -12.7%.

Consider `Cc1cc2c(cc1S(=O)(=O)NCc1ccc(F)cc1)n(C)c(=O)c(=O)n2C`, for which the activation was inactive: 9.33%.

In the case of `CCOc1ccc(CNC(=O)c2cccc(NC(=O)N3CCSc4ncccc43)c2)cc1OC`, the activation was inactive: 27.6%.

As to `CCc1ccc(C(=O)c2cn(CC(=O)Nc3ccc(Cl)cc3)c3cc4c(cc3c2=O)OCO4)cc1`, the activation is inactive: 4.06%.

`CCOc1cc2sc(N3CCC(C(=O)Nc4ccc(CC)cc4)CC3)nc2cc1Br`: the activation was inactive: -7.44%.

`CC(=O)N1CCCc2cc(S(=O)(=O)N3CCCC(C(=O)N4CCN(c5cccc(Cl)c5)CC4)C3)ccc21` (centres undefined): the activation was inactive: 8.45%.

Take `Cc1nc(N2CCCC2)c2c(C(=O)N3CCN(c4ccccc4)CC3)c(C)oc2n1`: the activation is inactive: -11.1%.
